Measured values: PubChem BioAssay AID894 (National Center for Advancing Translational Sciences (NCATS), 2007)
Among all 150,000 compounds or so, about 6,500 (4.3%) were called active. The shares of active, inactive and inconclusive entries below differ from those in the screen. Calls come from the whole dose curve; as a rule, active = well fitted inhibition curve with a large enough effect (not every such curve was filed as active); inconclusive = small, poorly fitted or top-dose-only effect, or another doubt; inactive = no such curve, though single readings can be large or run the other way. Potencies of inconclusive entries are left out as doubtful fits.

These molecules were tested against 15-hydroxyprostaglandin dehydrogenase [NAD(+)] (Homo sapiens) (UniProt P15428) (assay: qHTS Assay for Inhibitors of HPGD (15-Hydroxyprostaglandin Dehydrogenase)). Conditions: purified HPGD, NADH fluorescence kinetic, PGE2 substrate; activity change, negative = inhibition: hits give low values.
Procedure, shortened: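 NADH formation kinetics: reaction with 30 uM PGE2 and 1 mM NAD+ (final), 20 nM enzyme, Tris-HCl pH 8 with Tween 20, after 15 min compound preincubation at room temperature. Fluorescence change, last versus first of five reads.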
% is set by controls: 0 for no effect and ±100 for the full control effect; potency is the fitted concentration of half-maximal effect; tags give direction and shape of the fitted curve.

UniProt P15428, sequence (P15428 whole entry, looked up): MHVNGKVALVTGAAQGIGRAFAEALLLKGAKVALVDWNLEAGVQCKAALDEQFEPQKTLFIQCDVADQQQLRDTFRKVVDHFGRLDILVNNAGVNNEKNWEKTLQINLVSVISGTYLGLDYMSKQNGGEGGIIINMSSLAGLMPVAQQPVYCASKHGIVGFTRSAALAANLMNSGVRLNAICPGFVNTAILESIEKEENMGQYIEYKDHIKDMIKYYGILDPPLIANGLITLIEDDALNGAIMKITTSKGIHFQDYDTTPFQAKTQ

SMILES	Potency	activity change, negative = inhibition
CCOC(=O)Cn1c(=NC(=O)c2cccs2)sc2cc(C(=O)OC)ccc21	inconclusive [inhibitor, partial curve]	–
COc1cc2c(cc1NC(=O)COC(=O)C1CC(=O)N(Cc3ccco3)C1)oc1ccccc12 (stereo unspecified)	inconclusive [inhibitor, partial curve]	–
COc1ccccc1/C=C/C=N/n1c(-c2ccc(C)cc2)n[nH]c1=S	active: 1.41 µM	–
N#Cc1ccc(-c2ccc(OCC(=O)NCCc3ccccc3)cc2)cc1	inconclusive [inhibitor, partial curve]	–
COc1cc(OC)c2c(-c3cccc(-c4ccc(NC(C)=O)cc4)c3)cc(=O)oc2c1	inconclusive [inhibitor, single point]	–
O=C(O)c1ccc(CSc2nnc(SCc3ccccc3)s2)cc1	active: 20 µM	–
COc1ccc(N2CCN(C(=O)c3ccc(N4C(=O)NC5CC4(C)Oc4ccccc45)cc3)CC2)cc1 (stereo unspecified)	–	inactive: 1.82%
Cc1cccn2cc(-c3ccccc3)nc12	inconclusive [inhibitor, partial curve]	–
CCOC(=O)c1cc(CC)sc1NC(=O)c1cc(OC)c(OC)c(OC)c1	inconclusive [inhibitor, partial curve]	–
Cc1cccc(C(=O)Nc2ccc(O)c3c(=O)cc(-c4ccccc4Cl)oc23)c1	–	inactive: -10.4%
Cc1ccc2c(c1)N(C(=O)NC1CCCCC1)C(C)(C)CC2C (stereo unspecified)	–	inactive: -12.4%
COc1ccc(S(=O)(=O)N(CC(=O)Nc2ccc(S(=O)(=O)N3CCOCC3)cc2)Cc2ccc(F)cc2)cc1	–	inactive: -6.74%
COc1ccccc1NC(=O)C1=C(C)NC(SCC(=O)c2ccccc2)=C(C#N)C1c1ccco1 (stereo unspecified)	inconclusive [inhibitor, partial curve]	–
O=C(NCCNc1ccc([N+](=O)[O-])cc1)c1ccccc1Br	inconclusive [inhibitor, partial curve]	–
C=CCN1C(=O)C(O)(CC(=O)c2ccc(-n3cccc3)cc2)c2ccccc21 (stereo unspecified)	–	inactive: -16.9%
COc1cccc(Nc2nc(NCC3CCCO3)c3ccccc3n2)c1 (stereo unspecified)	inconclusive [inhibitor, partial curve]	–
CCN(CC)C(=O)CSc1nnc(-c2cc(-c3ccc(Cl)cc3)nc3ccccc23)o1	inconclusive [inhibitor, partial curve]	–
CC1CCCN(CCC(=O)c2ccc(Br)cc2)C1 (stereo unspecified)	active: 3.98 µM	–
CCOC(=O)Cc1c(C)nc2c(-c3ccc(Cl)cc3)c[nH]n2c1=O	inconclusive [inhibitor, partial curve]	–
Cc1ccc(S(=O)(=O)NCCCCCC(=O)NC(C)(C)CO)cc1	–	inactive: -8.56%
O=C(NCC(c1cccnc1)N1CCN(c2ccc(F)cc2)CC1)c1ccc(F)cc1 (stereo unspecified)	–	inactive: -12.1%
COc1cc(/C=N/Nc2ccc3ccccc3c2)ccc1OC(=O)c1ccco1	inconclusive [inhibitor, partial curve]	–
O=C(/C=C/c1ccccc1)Nc1ncn[nH]1	–	inactive: -8.74%

SMILES	Potency	activity change, negative = inhibition
CC1=NN(Cc2ccccc2)C(=O)C1C(c1ccccc1)C(C#N)C#N (stereo unspecified)	active: 31.6 µM	–
O=c1c2c3nc4ccccc4nc3n(Cc3ccccc3)c2ncn1Cc1ccco1	inconclusive [inhibitor, partial curve]	–
Cc1ccc(NC(=O)Cn2cccc2)c(Br)c1	active: 14.1 µM	–
CCOC(=O)c1sc(Nc2nc3c(F)cccc3s2)cc1C	inconclusive [inhibitor, partial curve]	–
COc1ccc(-c2cc3ccccc3n2CC(O)CN2CCN(CCO)CC2)cc1 (stereo unspecified)	inconclusive [inhibitor, single point]	–
Cc1cc(NC(=O)c2cc(-c3ccco3)on2)no1	–	inactive: 0.237%
O=C(NCc1ccco1)c1cc2nc(C3CC3)cc(C(F)(F)F)n2n1	active: 17.8 µM	–
CC(OC(=O)c1ccco1)C(=O)NC1CCCCC1 (stereo unspecified)	active: 14.1 µM	–
Cc1ccc(NC(=O)c2c(C)nn(-c3ccccc3)c2Cl)cc1	active: 14.1 µM	–
O=C(N/N=C\c1ccccc1O)c1ccccc1O	inconclusive [inhibitor, full curve, poor fit]	–
CS(=O)(=O)c1cc([N+](=O)[O-])c(Sc2nc3ccccc3[nH]2)c([N+](=O)[O-])c1	active: 3.55 µM	–
CCOC(=O)Cc1c(C)c2c(O)cc(O)cc2oc1=O	inconclusive [inhibitor, partial curve]	–
CC(C)NS(=O)(=O)c1cc(C(=O)O)ccc1Cl	–	inactive: -17.1%
O=C(Cn1[nH]c(=O)c2ccccc2c1=O)Nc1cccc(-c2nnc3n2CCCCC3)c1	active: 14.1 µM	–
CCn1c(C)c(C(C)=O)c(N2CCN(c3ccccn3)CC2)nc1=S	–	inactive: -5.09%
O=C(COC(=O)c1cc(-c2ccco2)nc2ccccc12)NCc1ccc2c(c1)OCO2	inconclusive [inhibitor, partial curve]	–
CCOC(=O)c1cnc2nc(NCc3ccc(OCc4ccccc4)cc3)[nH]n2c1=O	inconclusive [inhibitor, partial curve]	–
CCOC(=O)c1cnc(-n2nc(C)cc2C)nc1NCc1ccc2c(c1)OCO2	–	inactive: -11.2%
Cc1nc(NCc2ccccc2)c2nc(-c3ccccc3)n(CCCN(C)C)c2n1	inconclusive [inhibitor, partial curve]	–
CN1CCc2c(n(CC(O)CN3C(=O)c4ccccc4S3(=O)=O)c3ccccc23)C1=O (stereo unspecified)	–	inactive: -1.42%
Cc1cc(NC(=O)CSc2nc3c(c(-c4cccnc4)c2C#N)CCC3)no1	inconclusive [inhibitor, single point]	–
CCOC(=O)C1CCN(CC(=O)Nc2c(C(=O)OC)[nH]c3ccc(Cl)cc23)CC1	inconclusive [inhibitor, single point]	–
CCNC(=S)NNC(=O)CCn1cc(C)cn1	–	inactive: -1.84%
